Laboratory results: PubChem BioAssay AID1508642 (National Center for Advancing Translational Sciences (NCATS), 2021)
The campaign covered roughly 43,000 compounds. About 200 (0.47%) were called active. Inconclusive means that the source gave no clear call. Such entries were picked first, then a sample of the others. Calls come from the whole dose curve; as a rule, active = well fitted cell-killing curve with a large enough effect; inconclusive = small, poorly fitted or top-dose-only effect, or effect the other way; inactive = flat fitted curve, though single readings scatter. Potencies of inconclusive entries are doubtful fits and often do not repeat.

assay: Cell viability qHTS assay in S16 Pmp22-F2sN cells; settings: S16 Pmp22-F2sN Schwann cells (luciferase reporters placed in the Pmp22 gene) viability, CellTiter-Glo, 24 h; activity change, negative = cytotoxicity: at 57.5 µM (top of the series); note: nearly all actives have a fitted effect of over 65% in size
Method in brief: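 S16 Schwann cells carrying the Pmp22-F2sN reporter, seeded in 1536-well format, were exposed to library compounds for 24 h at 37C. Viability was read as CellTiter-Glo luminescence after 15 min at room temperature.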
% is set by controls: 0 for no effect and ±100 for the full control effect; potency is the fitted concentration of half-maximal effect; tags give direction and shape of the fitted curve.

Structure (SMILES)	Potency	activity change, negative = cytotoxicity
CCc1ccc(CNC(=O)C(C)n2ccc3cc(S(=O)(=O)N4CCCCCC4)ccc32)cc1 (stereo unspecified)	inconclusive: 39.8 µM [cytotoxic, single point]	
CCCCNC(=O)C1CCN(S(=O)(=O)CCC)CC1		inactive: -4.5%
COc1ccc(-c2c(C)c3ccc(O)c(CN4CCOCC4)c3oc2=O)cc1		inactive: -24.6%
COc1cc(C2NC(=O)c3c(sc4c3CCN(C)C4)N2)cc(Br)c1OC(=O)c1ccc(C)cc1 (stereo unspecified)		inactive: 1.68%
CCOC(=O)C1CCN(C(c2ccc(SC)cc2)c2c(O)cc(C)n(Cc3ccco3)c2=O)CC1 (stereo unspecified)	inconclusive: 7.94 µM [rising, single point]	
CCC1CCCCN1CCCNC(=O)c1[nH]c2ccccc2c1Sc1ccc(Cl)cc1 (stereo unspecified)	inconclusive: 39.8 µM [cytotoxic, single point]	
CCC(Sc1nc2ncccc2[nH]1)C(=O)Nc1cccc(OC)c1 (stereo unspecified)	inconclusive: 39.8 µM [cytotoxic, single point]	
Cc1ccc2sc(N3CCN(C(=O)CCS(=O)(=O)c4ccc(Cl)cc4)CC3)nc2c1C	inconclusive: 0.355 µM [cytotoxic, full curve, poor fit]	
COc1ccc(Cl)cc1C1CC(=O)Nc2cc3c(cc21)OCCO3 (stereo unspecified)	inconclusive: 0.447 µM [cytotoxic, full curve]	
CCCCNc1sc(S(=O)(=O)CCC)nc1S(=O)(=O)c1ccc(C)cc1		inactive: -23%
O=C(Nc1ccc(F)cc1)Nc1ccc2snnc2c1	inconclusive: 35.5 µM [cytotoxic, single point]	
O=C(Cn1ncc2c3ccccc3n(Cc3ccccc3F)c2c1=O)NCCCc1ccccc1	inconclusive: 39.8 µM [cytotoxic, single point]	
CCOc1ccc2nc(NC(=O)c3ccccc3)sc2c1	inconclusive: 39.8 µM [cytotoxic, single point]	
Cc1oc(-c2cccc(Cl)c2)nc1CSCC(=O)NCc1ccccc1Cl	inconclusive: 22.4 µM [cytotoxic, partial curve, poor fit]	
CCS(=O)(=O)c1ccccc1C(=O)N1CCN(c2nc3ccccc3s2)CC1		inactive: 4.52%
Cc1ccc(S(=O)(=O)C(CNC(=O)Cc2ccc(Cl)cc2)c2cccs2)cc1 (stereo unspecified)	inconclusive: 39.8 µM [cytotoxic, single point]	
CC(C)c1ccc(NC(=O)Nc2csc3c2CCCC3)cc1	inconclusive: 39.8 µM [cytotoxic, single point]	
CCCCN(C)CC(O)Cn1cc(/C=C/C(=O)c2ccc(C)cc2)c2ccccc21 (stereo unspecified)	inconclusive: 39.8 µM [cytotoxic, single point]	
Cc1ccc(NC(=O)c2c(C)oc3ccc(O)c(CN4CCCCCC4)c23)cc1	inconclusive: 39.8 µM [cytotoxic, single point]	
CC(C)S(=O)(=O)c1oc(-c2cccs2)nc1S(=O)(=O)c1ccc(F)cc1	active: 3.16 µM	
Cn1cc(-c2cc3n(n2)CCC(=O)N3CC(=O)NCc2ccc(Cl)cc2)c2ccccc21	inconclusive: 39.8 µM [cytotoxic, partial curve, poor fit]	

Structure (SMILES)	Potency	activity change, negative = cytotoxicity
COc1ccc(NC(=O)Cn2c(=O)n(Cc3ccccc3Cl)c(=O)c3cc(OC)c(OC)cc32)cc1OC		inactive: 23.9%
CCN(CC)CCn1c(-c2ccccc2)csc1=Nc1ccccc1	inconclusive: 39.8 µM [cytotoxic, single point]	
CC(C)(C)c1ccc(C2=NC(C)(C)N(CC(=O)Nc3ccc(F)c(F)c3)C2=O)cc1		inactive: -12.3%
CCCN(C(=O)COc1cc(=O)n(CC)c2ccccc12)c1ccc(C(C)C)cc1		inactive: -13%
CC(C)c1ccc(NC(=O)CCS(=O)(=O)c2cccc3nonc23)cc1	inconclusive: 25.1 µM [cytotoxic, partial curve, poor fit]	
Cc1ccc(CCNC(=O)c2ccc(CNS(=O)(=O)c3ccccc3)cc2)cc1		inactive: 2.3%
Cc1ccccc1CNC(=O)c1ccc(CSc2nc3cccnc3n2Cc2ccccc2)cc1	inconclusive: 39.8 µM [cytotoxic, single point]	
CCc1ccc(-n2c(SCc3ccccc3C)nc3[nH]ncc3c2=O)cc1	inconclusive: 25.1 µM [cytotoxic, single point]	
CCCNC(=O)c1cnc2sc(N3CCCCCC3)nn2c1=O	inconclusive: 0.562 µM [rising, full curve, poor fit]	
CN(C)c1ccc(C(=O)Nc2cccc(-c3nc4cccnc4s3)c2)cc1		inactive: -9.67%
COc1cccc(CNS(=O)(=O)c2ccc(-c3cc(C(F)(F)F)on3)s2)c1	inconclusive: 39.8 µM [cytotoxic, partial curve, poor fit]	
O=C(c1ccc2c(c1)OCCO2)N(Cc1cccnc1)c1nc2c(F)cc(F)cc2s1	inconclusive: 39.8 µM [cytotoxic, single point]	
COc1ccc(N(CC(=O)Nc2cc(Cl)ccc2C)S(=O)(=O)c2c(C)noc2C)cc1		inactive: -4.54%
CCc1cccc(NC(=O)c2oc3ccc4c(c3c2C)C(=O)CC(C)(C)O4)c1		inactive: -4.96%
COCCNC(=O)c1ccc2c(=O)n(CCOC)c(SCC(=O)c3c[nH]c4ccccc34)nc2c1	inconclusive: 10 µM [cytotoxic, partial curve, poor fit]	
CCC1CCc2nc3sc(C(=O)Nc4cccc(C(F)(F)F)c4)c(N)c3cc2C1 (stereo unspecified)		inactive: -0.0308%
CCc1nn2c(=O)cc(COC(=O)c3ccc(NC(=O)C4CCCCC4)cc3)nc2s1	inconclusive: 0.447 µM [rising, full curve, poor fit]	
CCCCn1cc(S(=O)(=O)c2ccc(CC)cc2)c(=O)c2cc(F)c(N3CCOCC3)cc21	inconclusive: 39.8 µM [cytotoxic, single point]	
Cc1ccc(OCC(=O)Nc2ccc3[nH]c(=O)sc3c2)cc1		inactive: 15%
Cc1nn(-c2ccccc2)c2c1N(CCCC(=O)NCc1ccccc1)C(=O)CS2	inconclusive: 10 µM [cytotoxic, partial curve]	
CN(Cc1ccccc1)S(=O)(=O)c1ccc(F)c(C(=O)Nc2cc(Cl)cc(Cl)c2)c1	inconclusive: 10 µM [cytotoxic, partial curve, poor fit]	

Structure (SMILES)	Potency	activity change, negative = cytotoxicity
CCOc1ccccc1CNC(=O)c1ccc2nc(CCc3ccccc3)oc2c1	inconclusive: 25.1 µM [cytotoxic, partial curve]	
CCCOc1ccccc1C(=O)Nc1ccc(-c2nc3ccc(C)cc3s2)cc1	inconclusive: 39.8 µM [rising, partial curve, poor fit]	
CCOc1ccc(C(c2c(C)[nH]n(-c3ccccc3)c2=O)c2c(C)[nH]n(-c3ccccc3)c2=O)cc1OC	inconclusive: 31.6 µM [cytotoxic, partial curve, poor fit]	
CCN(CC)CCNC(=O)c1ccc2c(=O)n3nc(Nc4cccc(Cl)c4C)sc3nc2c1	inconclusive: 39.8 µM [cytotoxic, single point]	
O=C(CSC1=Nc2ccccc2C2=NC(Cc3ccccc3)C(=O)N12)Nc1ccccc1 (stereo unspecified)	inconclusive: 20 µM [cytotoxic, partial curve, poor fit]	
O=C(CSc1nc2c([nH]c3ccccc32)c(=O)n1-c1cccc(C(F)(F)F)c1)N1CCCC1		inactive: 4.47%
Cc1cccc(-c2nnn3c2nc(NCCC(C)C)c2ccccc23)c1		inactive: 8.35%
Cc1ccc(Cl)cc1N1CCN(C(=O)c2cnn(-c3ccc(Cl)cc3)c2C2CCNCC2)CC1	inconclusive: 39.8 µM [cytotoxic, single point]	
N#Cc1c[nH]n2c(NC3CCCC3)c(-c3ccc(Br)cc3)nc12	inconclusive: 31.6 µM [cytotoxic, single point]	
COc1ccc(NC(=O)CSc2nc3ccccc3n2CC(=O)Nc2cccc(C)c2C)cc1	inconclusive: 10 µM [cytotoxic, partial curve, poor fit]	
COc1ccc(NC(=O)c2cc(S(=O)(=O)NCCC3=CCCCC3)ccc2F)cc1	inconclusive: 22.4 µM [cytotoxic, single point]	
CCc1nn(CC(=O)N2CCN(c3ccc(Cl)cc3)CC2)c(=O)c2cc3occc3n12		inactive: 1.57%
O=C(c1cnc(N2CCCCC2)c2ccccc12)N1CCN(c2ccc(Cl)cc2)CC1	inconclusive: 39.8 µM [cytotoxic, single point]	
CCCC(=O)C1=C(c2cccc(OC)c2)N(C(=O)CCC)n2c(C)nnc2S1	inconclusive: 39.8 µM [cytotoxic, single point]	
COc1ccc(-c2noc(N3CCN(c4ccc(C)cc4)C(C)C3)n2)cc1OC (stereo unspecified)	inconclusive: 35.5 µM [cytotoxic, single point]	
COc1ccccc1N1CCN(CCCNC(=O)c2cnn(-c3ccc(C)c(C)c3)c2C2CCN(C(=O)OC(C)(C)C)CC2)CC1	inconclusive: 39.8 µM [cytotoxic, single point]	
O=C(NCCc1ccc(Cl)cc1)c1ccc2c(c1)N(Cc1c(F)cccc1Cl)C(=O)CS2	inconclusive: 20 µM [rising, partial curve, poor fit]	
CCCCc1ccc(NS(=O)(=O)c2ccc(N3CCCCS3(=O)=O)cc2)cc1		inactive: -1.58%
CCSc1ncc(Cl)c(C(=O)N(Cc2ccccc2)Cc2ccco2)n1		inactive: -1.72%
